Test results published in PMC6919601, “Identification of Plasmodium dipeptidyl aminopeptidase allosteric inhibitors by high throughput screening” (PLoS ONE, 2019).
The campaign covered roughly 110,000 compounds. About 230 (0.21%) showed an effect of 50% or more. The list shows a part of the results.

target: DPAP1 (Plasmodium falciparum, UniProt Q8IIJ9); experiment: primary screen, percent inhibition; read by cleavage of a fluorogenic dipeptide substrate; higher = more effect of the substance; parameters: species or system P. falciparum D10 trophozoite lysates; single well
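Further: 30 min substrate incubation versus DMSO and 10 µM JCP410 controls.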

Chain of DPAP1 (Q8IIJ9 whole entry, looked up): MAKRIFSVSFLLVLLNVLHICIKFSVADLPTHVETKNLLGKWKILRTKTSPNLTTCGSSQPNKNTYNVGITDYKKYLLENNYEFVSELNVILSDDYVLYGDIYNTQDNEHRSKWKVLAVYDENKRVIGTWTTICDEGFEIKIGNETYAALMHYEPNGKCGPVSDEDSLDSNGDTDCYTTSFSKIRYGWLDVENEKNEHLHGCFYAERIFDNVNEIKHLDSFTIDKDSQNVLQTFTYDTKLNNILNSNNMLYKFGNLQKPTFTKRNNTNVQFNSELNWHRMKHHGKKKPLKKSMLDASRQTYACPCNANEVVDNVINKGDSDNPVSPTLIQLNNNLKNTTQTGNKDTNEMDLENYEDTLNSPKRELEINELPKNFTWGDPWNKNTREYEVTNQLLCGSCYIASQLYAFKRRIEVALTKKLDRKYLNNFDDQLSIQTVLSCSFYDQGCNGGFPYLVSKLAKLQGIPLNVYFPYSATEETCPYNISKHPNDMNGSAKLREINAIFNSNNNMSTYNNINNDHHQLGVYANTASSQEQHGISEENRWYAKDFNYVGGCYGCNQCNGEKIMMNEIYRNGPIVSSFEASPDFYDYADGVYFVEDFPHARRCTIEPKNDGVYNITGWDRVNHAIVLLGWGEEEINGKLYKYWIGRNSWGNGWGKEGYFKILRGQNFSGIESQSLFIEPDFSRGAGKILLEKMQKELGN

SMILES | % Inhibition @ 10 uM [%]
CCCCN(C)CCCn1cnc2c3cc(Cl)ccc3nc-2c1O | -3.52
CCn1cc(CCCC(=O)NCc2cccs2)c2ccccc21 | 4.51
Cn1c(S)nc2c1c(=O)n(Cc1ccccc1Cl)c(=O)n2C | 6.12
Cn1cc(Br)c(C(=O)Nc2nc3ccccc3n2Cc2ccccc2)n1 | 2.21
CCCC(NC(N)=O)c1ccccc1 (centres unmarked) | -3.32
Cc1ccc(OCc2nc(C#N)c(NCc3ccccc3Cl)o2)cc1 | -0.958
Fc1ccccc1Cc1nc(-c2ccc(C(F)(F)F)cc2)no1 | 6.31
Cc1ccc(S(=O)(=O)CC(=O)N2CCCCCC2)cc1 | 2.13
O=C(c1ccco1)N1CCN(C(=O)C2CCN(S(=O)(=O)c3cccc4nsnc34)CC2)CC1 | 3.53
CC1=NN(c2ccccc2)C(=O)/C1=C\c1ccccc1[N+](=O)[O-] | 0.247
Cc1oc2cc3c(C#N)c(C)oc3cc2c1C#N | -4.61
Cc1ccc(/C=C(\NC(=O)c2ccccc2)C(=O)NCCc2ccccc2F)o1 | -0.968
CCc1ccc(NC2=NC(=O)C(CC(=O)Nc3ccccc3)S2)cc1 (centres unmarked) | 21.5
CC(C)(CNC(=O)c1ccc2c(c1)OCO2)CNC(=O)c1ccc2c(c1)OCO2 | 0.317
O=C(Cn1nc(-c2ccccc2)c2ccccc2c1=O)NCCO | 1.39
COc1ccc2cc(C(=O)O)n(Cc3ccccc3)c2c1 | -1.75
Cc1oc2ncnc(N3CC(C)CC(C)C3)c2c1C(=O)O (centres unmarked) | -2.19
CC(C)(C)C(/C=C\c1ccc(Cl)cc1Cl)n1nnnc1C(c1ccccc1)N1CCOCC1 (centres unmarked) | -2.72
C=CCOC(=O)C1=C(C)NC(=O)NC1c1ccc(Cl)cc1 (centres unmarked) | 3.61
CCCC1(NC(=O)c2ccccc2)CCCC1 | -0.744
O=CNc1ncc(-c2nc3ccccc3[nH]2)s1 | -0.597
O=C(Nc1cccc2cccnc12)c1ccccc1 | -4.02
COc1ccc(NC(=O)c2c(-c3ccccc3Cl)noc2C)cc1 | 2.03
COc1cc2c(cc1OC)C(c1cccnc1)N(C(C)=O)CC2 (centres unmarked) | 4.51
CCOc1cc(-c2nc(C)c(C(C)=O)n2O)ccc1OCC(=O)Nc1cccc(C)c1 | -0.25

SMILES | % Inhibition @ 10 uM [%]
Cc1cc(/N=C/C2=C(O)c3sccc3N(Cc3ccc(F)cc3)S2(=O)=O)no1 | 2.44
Cc1ccc(NC2=NC(=O)C(CC(=O)Nc3c(C)cccc3C)S2)cc1 (centres unmarked) | -11.8
Cc1ccc(C)c(NC(=O)c2ccc(Cl)cc2Cl)c1 | 0.827
Cc1ccc(CN2CCN(c3ccccc3)CC2)cc1 | 1.55
CC(C)C(=O)N1CCN(c2ccc(F)cc2)CC1 | -1.54
CCOC(=O)c1cc2c(=O)n3ccccc3nc2n(CCCOC)/c1=N\C(C)=O | -2.04
CCOC(=O)c1c(C)n(Cc2ccccc2)c2ccc(OCC(O)CNCc3ccccc3)cc12 (centres unmarked) | -4.93
O=[N+]([O-])c1ccc(C2=NN=C(c3ccccc3)c3ccccc3N2)cc1 | -0.034
Cc1cccn2c(=O)c3cc(C(=O)O)n(C)c3nc12 | -4.72
COc1cc2c(cc1OC)C(=O)NCC(C)(C)O2 | 12.2
CN(C(=O)c1ccc(C(=O)c2ccccc2)cc1)c1ccccc1 | -3.04
Cc1ccc(CNC(=O)CN2CCN(Cc3ccccc3C)C2=O)cc1 | -0.256
Cc1oc2c(C)c3oc(=O)cc(C)c3cc2c1-c1ccccc1 | -2.92
C=CCNc1nc(Cl)nc(NC2CCCCC2)n1 | 2.54
Brc1ccc(OCCCCN2CCCCC2)cc1 | 1.35
COc1ccccc1Nc1nc(-c2sc(NC(C)=O)nc2C)cs1 | 13
Cc1ccc(CNCCC2=CCCCC2)cc1 | -5.01
CCc1ccc(OCC(=O)Nc2ccc(S(=O)(=O)N3CCc4ccccc43)cc2)cc1 | 3.53
Fc1ccc(N2CCN(Cc3ccc(F)cc3F)CC2)cc1 | 1.55
COc1ccc(CCNC(=O)Cn2nc(C)n3cccc3c2=O)cc1OC | -6.99
O=C1CC(N2CCN(Cc3ccccc3)CC2)C(=O)N1c1ccc(F)cc1 (centres unmarked) | 1.02
Cn1c(C(=O)N2CCC(C(=O)NCCCc3ccccc3)CC2)cc2sccc21 | 0.137
CCC(C(=O)NCc1cccc(OC)c1OC)n1ncn2c(cc3occc32)c1=O (centres unmarked) | -3.79
Cc1cccc(Oc2nc3c(C)cccn3c(=O)c2/C=C(\C#N)C(=O)NCC2CCCO2)c1 (centres unmarked) | -9.06
CCN1CCN(CCCNC(=O)c2ccc3c(c2)c(C)c(C)n3Cc2ccc(Cl)cc2)CC1 | 5.72
